Consider 2 molecules from patent US20230002488A1.

For assay [1], the target named is T1, MICA on MDA-MB-231 cells (human), Q29983.
T1 chain: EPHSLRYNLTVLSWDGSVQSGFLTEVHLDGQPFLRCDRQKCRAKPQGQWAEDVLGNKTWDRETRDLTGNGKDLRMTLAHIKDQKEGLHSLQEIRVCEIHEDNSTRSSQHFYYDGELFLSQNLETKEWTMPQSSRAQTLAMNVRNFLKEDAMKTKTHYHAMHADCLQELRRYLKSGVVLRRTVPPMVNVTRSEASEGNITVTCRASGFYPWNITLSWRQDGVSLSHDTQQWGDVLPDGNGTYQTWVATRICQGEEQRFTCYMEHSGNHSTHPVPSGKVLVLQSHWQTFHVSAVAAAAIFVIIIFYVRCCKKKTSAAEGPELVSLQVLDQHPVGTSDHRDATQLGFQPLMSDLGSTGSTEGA
Kind of assay: cell-based or functional assay.

Assay [2] deals with human 4-1BB (human), Q07011. The assay is described as follows: BLI (Octet), GNC on AHC sensor, 100 nM antigen as analyte, 1:1 fit; D4 is the 4-1BBL trimer. For orientation: Biolayer interferometry detects binding as a change in optical thickness at a sensor tip.
For assay [3], the target named is human PD-L1 (human), Q9NZQ7. The assay is described as follows: BLI (Octet), GNC on AHC sensor, 100 nM antigen as analyte, 1:1 fit.
The target of assay [4] is human EGFR (human), P00533. The assay is described as above.

B1: SI-49P7 (protein)
heavy: EIVMTQSPSTLSASVGDRVIITCQASESISSWLAWYQQKPGKAPKLLIYEASKLASGVPSRFSGSGSGAEFTLTISSLQPDDFATYYCQGYFYFISRTYVNSFGCGTKLTVLGSTGSGSKPGSGEGSTKGEVQLVESGGGLVQPGGSLRLSCTASGFTISTNAMSWVRQAPGKCLEWVGVITGRDITYYASWAKGRFTISRDTSKNTVYLQMNSLRAEDTAVYYCARDGGSSAITSNNIWGQGTLVTVSTGGGGSGGGGSFLNSLFNQEVQIPLTESYCGPCPKNWICYKNNCYQFFDESKNWYESQASCMSQNASLLKVYSKEDQDLLKLVKSYHWMGLVHIPTNGSWQWEDGSILSPNLLTIIEMQKGDCALYASSFKGYIENCSTPNTYICMQRTVASTKGPSVFPLAPSSKSTSGGTAALGCLVKDYFPEPVTVSWNSGALTSGVHTFPAVLQSSGLYSLSSVVTVPSSSLGTQTYICNVNHKPSNTKVDKRV[sequence of human IgG1 Fc with L234A L235A N297A K322A (EU numbers) not given]GGGGSGGGGSEVQLLESGGGLVQPGGSLRLSCAASGFSFSSGYDMCWVRQAPGKCLEWIACIAAGSAGITYDANWAKGRFTISRDNSKNTLYLQMNSLRAEDTAVYYCARSAFSFDYAMDLWGQGTLVTVSSGGGGSGGGGSGGGGSGGGGSDIQMTQSPSTLSASVGDRVTITCQASQSISSHLNWYQQKPGKAPKLLIYKASTLASGVPSRFSGSGSGTEFTLTISSLQPDDFATYYCQQGYSWGNVDNVFGCGTKVEIKGGGGSGGGGSGREGPELSPDDPAGLLDLRQGMFAQLVAQNVLLIDGPLSWYSDPGLAGVSLTGGLSYKEDTKELVVAKAGVYYVFFQLELRRVVAGEGSGSVSLALHLQPLRSAAGAAALALTVDLPPASSEARNSAFGFQGRLLHLSAGQRLGVHLHTEARARHAWQLTQGATVLGLFRVTPEIPAGLGSTGSGSKPGSGEGSTKGREGPELSPDDPAGLLDLRQGMFAQLVAQNVLLIDGPLSWYSDPGLAGVSLTGGLSYKEDTKELVVAKAGVYYVFFQLELRRVVAGEGSGSVSLALHLQPLRSAAGAAALALTVDLPPASSEARNSAFGFQGRLLHLSAGQRLGVHLHTEARARHAWQLTQGATVLGLFRVTPEIPAGLGGGGSGGGGSREGPELSPDDPAGLLDLRQGMFAQLVAQNVLLIDGPLSWYSDPGLAGVSLTGGLSYKEDTKELVVAKAGVYYVFFQLELRRVVAGEGSGSVSLALHLQPLRSAAGAAALALTVDLPPASSEARNSAFGFQGRLLHLSAGQRLGVHLHTEARARHAWQLTQGATVLGLFRVTPEIPAGL
light: ENVLTQSPASLSASPGERVTITCSASSSVSYMHWYQQKPGQAPKLWIYDTSKLASGVPSRFSGSGSGNDHTLTISSMEPEDFATYYCFQGSVYPFTFGQGTKLEIKGSTGSGSKPGSGEGSTKGQVTLKESGPGLVQPGQTLRLTCAFSGFSLSTSGMGVGWIRQPPGKGLEWLAHIWWDDDKRYNPALKSRLTISKDTSKNQVYLQMNSLDAEDTAVYYCARMELWSYYFDYWGQGTLVTVSSGGGGSGGGGSGGGGSFLNSLFNQEVQIPLTESYCGPCPKNWICYKNNCYQFFDESKNWYESQASCMSQNASLLKVYSKEDQDLLKLVKSYHWMGLVHIPTNGSWQWEDGSILSPNLLTIIEMQKGDCALYASSFKGYIENCSTPNTYICMQRTVRTVAAPSVFIFPPSDEQLKSGTASVVCLLNNFYPREAKVQWKVDNALQSGNSQESVTEQDSKDSTYSLSSTLTLSKADYEKHKVYACEVTHQGLSSPVTKSFNRGEC
In the case of B1, the TDCC EC50, MDA-MB-231 target cells in assay [1] stood at 0.109 pM.

B2: SI-55P10 (antibody, human IgG1, kappa)
heavy: EIVLTQSPSTLSVSPGERATFSCRASQSIGTNIHWYQQKPGKPPRLLIKYASESISGIPDRFSGSGSGTEFTLTISSVQSEDFAVYYCQQNNNWPTTFGPGTKLTVLGGGGSGGGGSGGGGSGGGGSQVQLQQSGPGLVKPSETLSITCTVSGFSLTNYGVHWIRQAPGKGLEWLGVIWSGGNTDYNTPFTSRFTITKDNSKNQVYFKLRSVRADDTAIYYCARALTYYDYEFAYWGQGTLVTVSSGGGGSGGGGSEVQLVESGGGLVQPGGSLRLSCAASGFTISTNAMSWVRQAPGKGLEWIGVITGRDITYYASWAKGRFTISRDNSKNTLYLQMNSLRAEDTAVYYCARDGGSSAITSNNIWGQGTLVTVSSASTKGPSVFPLAPSSKSTSGGTAALGCLVKDYFPEPVTVSWNSGALTSGVHTFPAVLQSSGLYSLSSVVTVPSSSLGTQTYICNVNHKPSNTKVDKRV[sequence of human IgG1 Fc with changes not given]GGGGSGGGGSEVQLLESGGGLVQPGGSLRLSCAASGFSFSSGYDMCWVRQAPGKGLEWIACIAAGSAGITYDANWAKGRFTISRDNSKNTLYLQMNSLRAEDTAVYYCARSAFSFDYAMDLWGQGTLVTVSSGGGGSGGGGSGGGGSGGGGSDIQMTQSPSTLSASVGDRVTITCQASQSISSHLNWYQQKPGKAPKLLIYKASTLASGVPSRFSGSGSGTEFTLTISSLQPDDFATYYCQQGYSWGNVDNVFGGGTKVEIKGGGGSGGGGSGREGPELSPDDPAGLLDLRQGMFAQLVAQNVLLIDGPLSWYSDPGLAGVSLTGGLSYKEDTKELVVAKAGVYYVFFQLELRRVVAGEGSGSVSLALHLQPLRSAAGAAALALTVDLPPASSEARNSAFGFQGRLLHLSAGQRLGVHLHTEARARHAWQLTQGATVLGLFRVTPEIPAGLGSTGSGSKPGSGEGSTKGREGPELSPDDPAGLLDLRQGMFAQLVAQNVLLIDGPLSWYSDPGLAGVSLTGGLSYKEDTKELVVAKAGVYYVFFQLELRRVVAGEGSGSVSLALHLQPLRSAAGAAALALTVDLPPASSEARNSAFGFQGRLLHLSAGQRLGVHLHTEARARHAWQLTQGATVLGLFRVTPEIPAGLGGGGSGGGGSREGPELSPDDPAGLLDLRQGMFAQLVAQNVLLIDGPLSWYSDPGLAGVSLTGGLSYKEDTKELVVAKAGVYYVFFQLELRRVVAGEGSGSVSLALHLQPLRSAAGAAALALTVDLPPASSEARNSAFGFQGRLLHLSAGQRLGVHLHTEARARHAWQLTQGATVLGLFRVTPEIPAGL
light: ENVLTQSPASLSASPGERVTITCSASSSVSYMHWYQQKPGQAPKLWIYDTSKLASGVPSRFSGSGSGNDHTLTISSMEPEDFATYYCFQGSVYPFTFGQGTKVTVLGGGGSGGGGSGGGGSGGGGSQVTLKESGPGLVQPGQTLRLTCAFSGFSLSTSGMGVGWIRQPPGKGLEWLAHIWWDDDKRYNPALKSRLTISKDTSKNQVYLQMNSLDAEDTAVYYCARMELWSYYFDYWGQGTLVTVSSGGGGSGGGGSDVVMTQSPSTLSASVGDRVTINCQASESISSWLAWYQQKPGKAPKLLIYEASKLASGVPSRFSGSGSGTEFTLTISSLQPDDFATYYCQGYFYFISRTYVNSFGGGTKVEIKRTVAAPSVFIFPPSDEQLKSGTASVVCLLNNFYPREAKVQWKVDNALQSGNSQESVTEQDSKDSTYSLSSTLTLSKADYEKHKVYACEVTHQGLSSPVTKSFNRGEC
Broadly, the Kd is the concentration at which binding is half-saturated. In the case of B2, the equilibrium dissociation constant (Kd) is 65.5 nM in assay [2], 0.521 nM in assay [3] and 7.48 nM in assay [4].
